PubChem BioAssay (NCI)
Where “and” joins values, the source holds several entries; their conditions need not be identical. Equal values may be shown once.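 96-well plates; 48 h exposure; 5 concentrations. Endpoints by linear interpolation between flanking doses. Not reached: highest tested concentration assigned. Here, GI50 denotes the concentration required for 50% inhibition of growth. TGI denotes the concentration required for complete inhibition of growth.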

System: NCI-H322M lung
Assay: growth of human tumour cells (NCI), 48 h

Compound | TGI | GI50 [µM]
COC(=O)CCc1cc(OC)c2c(c1)C(C(=O)OC)C(c1ccc(OC)c(OC)c1)O2 (configuration not stated) | > 100 µM | 
CC(=O)[O-].CC(=O)[O-].[Pt+2].c1cscn1.c1cscn1 | > 100 µM | > 100
Cc1cc(C)nc(NS(=O)(=O)c2ccc(Nc3c4ccccc4nc4c(C(=O)NNCCO)cccc34)cc2)n1 | > 100 µM | 
O=C1OC(CC(=O)c2ccc(Cl)c(Cl)c2)C(Cl)=C1Cl (configuration not stated) | > 100 µM | 
COC1CC(C)C(OC)C2=CC(=O)C=C(NC(=O)/C(C)=C/C=C\C(C)C(OC(N)=O)/C(C)=C\C(C)C1OC)C2=O (configuration not stated) | 17.5 µM | 
COc1ccc(CN(C)c2ccc(CO)c(Cl)c2)cc1 | 99.6 µM | 16.7
CC1C[C@@]2(c3ccccc3)C(=O)CCC[C@H]2N1 (some centres not stated) | > 100 µM | 
CN(C)C=Nc1cccc2nsnc12 | > 100 µM | 
COc1ccc2cc(Oc3ccc(Cl)cc3)c(=O)oc2c1 | > 100 µM | 
CC(C)(C)[Si](C)(C)O[C@@H](C(=O)OC1C=CCCC1)[C@@H](NC(=O)c1ccccc1)c1ccccc1 (some centres not stated) | > 100 µM | 
CN1C2CCC1CC(CCOC(c1ccc(F)cc1)c1ccc(F)cc1)C2 (configuration not stated) | 27.6 µM | 
CCN(CC)CC(O)CNc1ccc(NCC2CO2)c2c1C(=O)c1ccccc1C2=O (configuration not stated) | 5.53 µM | 
CCCCCCCCC[C@@H]1CC(=O)OCC2OC(O[C@H](CCCCCCCCC)CC(=O)OCC3OC(O[C@H](CCCCCCCCC)CC(=O)OCC4OC(O1)C(O)C(O)C4O)C(O)C(O)C3O)C(O)C(O)C2O (some centres not stated) | 23.3 µM | 
CCOC(=O)NC(=O)c1cn(CC(=O)NCC(=O)NCC(=O)NCCCN2CCN(CCCNC(=O)CNC(=O)CNC(=O)Cn3cc(C(=O)NC(=O)OCC)c(=O)[nH]c3=O)CC2)c(=O)[nH]c1=O | > 100 µM | 
O=C(c1ccccc1)c1ccc2nc3n(c2c1)C(c1c(F)cccc1F)SC3 (configuration not stated) | > 93.1 µM | 
Cc1c(NC(=O)C(C)(C)Br)c(=O)oc2c(C)c3occc(=O)c3cc12 | > 100 µM | 
O=C(O)c1ccc(P(=O)(O)c2ccc(C(=O)O)cc2Br)c(Br)c1 | > 100 µM | 
O=c1c(C=Nc2ccccc2Cl)c(O)n(-c2ccccc2)c(=O)n1-c1ccccc1 | > 100 µM | 
CC(C)(C#N)c1cc(Cn2cncn2)cc(C(C)(C)C#N)c1 | > 10000 µM | > 10000
C=C1C(=O)OC2/C=C(\CO)C3OC3C3OC3(C)CC(OC(=O)/C(=C/C)CO)C12 (configuration not stated) | > 100 µM | 
c1ccc2c(c1)CCC/C2=N\OCC1CO1 (configuration not stated) | > 100 µM | 
C=C1C(=O)C23CC1C[C@H](OC(C)=O)[C@H]2C1(C)C(OC(C)=O)C[C@H](O)C(C)(C)[C@H]1C(=O)[C@@H]3OC(C)=O (some centres not stated) | 28.5 µM | 
Cc1[nH]c2ccccc2c1C1Cc2ccccc2N1C(=O)/C=C\C(=O)O (configuration not stated) | > 100 µM | 
c1ccc2c(C3CCN(CCN4CCOCC4)C3)c[nH]c2c1 (configuration not stated) | > 100 µM | 

Compound | TGI | GI50 [µM]
ClCc1cccc(Cn2cnc3c(NC45CC6CC(CC(C6)C4)C5)ncnc32)c1 | 31.9 µM | 15.4
NOCC(=O)O | > 100 µM | > 100
O=[N+]([O-])c1cccc(/C=N\NS(=O)(=O)c2ccc(Cl)cc2)c1O | > 100 µM | 
COc1ccc(N2C(=O)CC(Cl)C2=O)cc1 (configuration not stated) | > 100 µM | 
O=c1c2c(nc3n1CCS3)[nH]c1ccccc12 | > 100 µM | > 100
CN1CCN(CCCN)CC1 | > 100 µM | 
CN[C@@H](C)C(=O)N[C@H](C(=O)N1CCC[C@H]1C(=O)N[C@H]1c2ccccc2C[C@H]1OCC#CC#CCO[C@@H]1Cc2ccccc2[C@@H]1NC(=O)[C@@H]1CCCN1C(=O)[C@@H](NC(=O)[C@H](C)NC)C1CCCCC1)C1CCCCC1 | 25.9 µM | 11.9
O=C1CC(CC(O)[C@@H]2CCCC[C@@H]2O)CC(=O)N1c1ccccc1 (some centres not stated) | > 100 µM | 
COC(=O)c1s/c(=N\C(=S)N(C)C)n(-c2ccccc2)c1C(=O)OC | > 100 µM | 
O=c1[nH]c(C23CC4CC(CC(C4)C2)C3)cc2c1c(=O)oc1ccccc12 | 16.6 µM | 
O=C1c2ccccc2C(O)(C(=O)O)C1(O)CC=C(Cl)Cl (configuration not stated) | > 125 µM | 
COc1cc(OC)cc(C2CC(=O)Nc3c2c(C)nn3-c2nc3ccccc3[nH]2)c1 (configuration not stated) | > 100 µM | 4.63
O=S(=O)(N/N=C/c1ccc(/C=N/NS(=O)(=O)c2ccccc2)cc1)c1ccccc1 | > 100 µM | 
O=C(Nc1ccc(Cl)cc1)C(=O)C(C(=O)c1ccccc1-c1ccccc1)C1OC(=O)c2ccccc21 (configuration not stated) | 53.6 µM | 
COC(=O)C1C(C(=O)OC)C2(OC)c3ccccc3-c3ccccc3C12 (configuration not stated) | > 100 µM | 
CC1(C)CN=C(c2ccc3c(c2)Cc2cc(C4=NCC(C)(C)N4)ccc2-3)N1 | 73.8 µM | 
CC(C)=CCC[C@@H](C)C1=C(O)C(O)C(C)=C2N=C(c3ccccc3)C(=O)OC21 (some centres not stated) | > 25 µM | 
COc1ccc(Nc2nnc(CCCCCCCCc3nnc(Nc4ccc(OC)cc4)o3)o2)cc1 | > 100 µM | 
CC(=O)OCC1OC(N2C(=O)C(=O)c3cc(C)ccc32)C(OC(C)=O)C(OC(C)=O)C1OC(C)=O (configuration not stated) | > 100 µM | 
O=C1c2ccccc2-c2c1c1ccccc1c(=O)n2CCCNCCCn1ccnc1 | 12.8 µM | 2.81
CC(=O)O[C@@H]1CC[C@@]2(C)C(CC[C@H]3[C@@H]4CC[C@H]([C@H](C)CCc5nc6ccc(C)cc6[nH]5)[C@@]4(C)CC[C@@H]32)C1 (some centres not stated) | > 100 µM | 
C/C1=C/C(C)CC(C)OC(=O)C(C)NC(=O)C(Cc2ccc(O)c(I)c2)N(C)C(=O)CNC(=O)C(C)C1 (configuration not stated) | > 100 µM | 
N=c1oc2ccc([N+](=O)[O-])cc2cc1C(=O)NCc1ccccc1 | > 100 µM | 
CCCCOC(=O)NC(=O)c1cn(CCCOC(=O)CCCCCCCCC(=O)OCCCn2cc(C(=O)NC(=O)OCCCC)c(=O)[nH]c2=O)c(=O)[nH]c1=O | > 100 µM | 

Compound | TGI | GI50 [µM]
CCC1(CC)C(=O)OC(=O)C1(CC)CC | > 100 µM | 
CC12CCC3[C@@H](CC3(C)C)C(O)(CCC1=O)C2 (some centres not stated) | > 100 µM | 
CC(=O)C(I(OS(=O)(=O)c1ccc(C)cc1)c1ccccc1)=P(c1ccccc1)(c1ccccc1)c1ccccc1 | > 100 µM | 
Cc1ccc(-n2cnc3c(N)nc(N)nc32)cc1 | > 100 µM | 
O=C(/C=C/c1ccc(F)cc1)c1ccc(Cl)cc1Cl | > 100 µM | > 100
CCOC(=O)C(Cc1c[nH]c2ccc(N)cc12)(NC(C)=O)C(=O)OCC | > 1000 µM | > 1000
CC[C@](O)(CC(=O)O[C@H]1C(=O)O[C@@H]2C[C@H]3C(C)=CC(=O)[C@@H](O)[C@]3(C)[C@H]3[C@@]4(O)OC[C@]32[C@@H]1[C@@H](C)[C@H]4O)C(C)C | 0.0352 µM | 
Nc1ccc(N(S(=O)(=O)c2ccccc2)S(=O)(=O)c2ccccc2)c(Cl)c1 | > 100 µM | 
Cc1nc2sc(C(=O)Nc3cccc(Cl)c3C)c(N)c2cc1C(=O)/C=C/c1ccccc1 | 13 µM | 1.52
Cc1cc([C@H](C#N)c2nc3ccccc3[nH]2)nc(Cl)n1 | 55.2 µM | 
COc1ccccc1N1C(=O)/C(=C/c2ccc(N(CCC#N)CCC#N)cc2C)N=C1c1cc([N+](=O)[O-])ccc1Cl | > 100 µM | 
CC/C(C)=C1\CCC(CN2CCOCC2)C1=O (configuration not stated) | > 100 µM | 
COc1ccc([N+]2=NC(c3ccc([N+](=O)[O-])cc3)=NN(c3ccccc3)C2)cc1 | > 100 µM | 
O=Cc1ccc(-c2cc(C=O)c(-c3cccs3)[nH]2)s1 | 75 µM and > 100 µM | 28.4
CCN(CC)CCC(=O)NC1c2ccc(Cl)cc2Oc2c(C)cccc21 (configuration not stated) | 29.5 µM | 
Cn1ccnc1CC(C)(O)c1ccccc1 (configuration not stated) | > 100 µM | 
O=c1[nH]n(Cc2ccccc2Cl)c2ccc([N+](=O)[O-])cc12 | > 100 µM | 
CN(C)c1ccc(/C=N\NC(=O)c2ccccc2Nc2ccccc2C(=O)N/N=C/c2ccc(N(C)C)cc2)cc1 | > 100 µM | 
Cc1cc(C)c([O-])c(CN(C)CCN(C)Cc2cc(C)cc(C)c2[O-])c1.O=C([O-])c1cccc(C(=O)[O-])n1.[Ti+4] | > 100 µM | 2.45
O=[N+]([O-])c1cccc(C2N3CCCCC3[C@@H]3c4[nH]c5ccccc5c4CCN23)c1 (some centres not stated) | 39.3 µM | 
OC1(CCc2ccccc2)COC(C(F)(F)F)(C(F)(F)F)C1 (configuration not stated) | > 100 µM | 
CCCCc1c2c(nc3c1CCC/C3=C\c1ccccc1)C(=O)CCC2 | 78.1 µM | 
COC(=O)Nc1nc2ccc(S(=O)(=O)NC(CC(C)C)C(=O)OC)cc2[nH]1 (configuration not stated) | > 100 µM | 
Cc1c(C)c2c(c(N)c1C#N)C(=O)N(CCc1ccccc1)C2=O | > 100 µM | 

Compound | TGI | GI50 [µM]
CC(=O)c1c(C)[nH]c(-c2nc3ccc(N4CCN(C)CC4)cc3[nH]2)c1-c1ccc(OCC2CCOCC2)cc1 | 23.5 µM | 1.65
COc1ccc(NC(=O)C(=O)C(C(=O)c2ccccc2)C2OC(=O)c3ccccc32)c([N+](=O)[O-])c1 (configuration not stated) | > 100 µM | 
OC(CCN1CCCCC1)(c1ccccc1)c1ccccc1 | > 100 µM | 
CCOC(=O)c1cc(C#N)c(=O)n(/N=C(\C)c2ccncc2)c1O | > 100 µM | > 100
CC(O)c1cccc(NCc2c3ccccc3c(=O)n3c2oc2ccccc23)c1 (configuration not stated) | 54.8 µM | 6.04
COc1cc(S(=O)(=O)Nc2nc(-c3ccc(N4C(=O)CSC4c4cccs4)cc3)cs2)ccc1Cl (configuration not stated) | > 100 µM | 
O=C(c1cc(Cl)cc(Cl)c1)N(C(=O)N1CCN(c2ccccc2)CC1)c1ccccc1 | > 100 µM | 
O=C(/C=C/c1ccc([N+](=O)[O-])o1)N1CCN(Cc2ccccc2)CC1 | 23 µM | 
CCC(C)C(C(=O)N/N=C1/SCC(=O)N1c1ccccc1)C(=O)N/N=C1/SCC(=O)N1c1ccccc1 (configuration not stated) | > 100 µM | 
C=C(Cl)c1c(OC)cccc1OCc1ccccc1 | > 100 µM | 
O=c1c2cc(Cl)ccc2oc2ccc(OCCCCCN3CCCCC3)cc12 | 12.9 µM | 6.4
CN1CCC2(CC1)SC[C@H]1C(=O)N(c3ccc(Cl)cc3)C(=O)N12 | > 100 µM | 
CC(=O)c1cccc(N2COC(C)(C)c3nc4ccccc4n3C2)c1 | > 100 µM | 
CC1=C(C(=O)Nc2ccccc2C)C(c2ccc(Cl)c(Cl)c2)C(C(=O)Nc2ccccc2C)=C(C)N1 | > 100 µM | 
COc1nc(C)nc2sc3c(c12)CCCC3 | > 100 µM | 
CCOC(=O)Nc1nc2ccc(Cn3cccc3)cc2[nH]1 | > 100 µM | 
COC(=O)C1=C(O)C(C(=O)OC)[C@]2(O)[C@H](C(=O)OC)[C@H]1C[C@@H](c1ccc(F)cc1)[C@H]2C(=O)OC (some centres not stated) | 31.2 µM | 
CC1=C2[C@@H](CC1)[C@]1(C)O[C@@](C3CCCCC3)(C[C@H]1OC(=O)CO)[C@H]2OC(=O)/C=C/c1ccccc1 | 30 µM | 13
CCC(Sc1cc(Cl)c(C)cc1S(=O)(=O)Nc1nc(N)nc(N(C)C)n1)C(=O)O (configuration not stated) | > 10 µM | 
CC(=O)O[C@H]1CC[C@H]2[C@@H]3CCC4C(C)=NNC(=O)C4[C@H]3CC[C@]12C (some centres not stated) | > 100 µM | 
COc1ccc2cc(CNCCCCCCCCCCCCNCc3ccc4cc(OC)ccc4c3)ccc2c1 | 43.7 µM | 
